Test results published in patent publication US9763925B2, “Antibacterial compounds” (SUMMIT THERAPEUTICS PLC, priority 2008, dated 2017).

Experiments:
[1] = test system: Clostridium difficile clinical isolate (CI); experiment: microbe, parasite or virus in culture; format: cell-based; settings: Clostridioides difficile, read-out: MIC (CI)
[2] = test system: vancomycin-resistant strain of Enterococcus faecalis ATCC51299 (VR); experiment: MIC by broth microdilution against vancomycin-resistant Enterococcus faecalis ATCC51299
[3] = test system: Bacteroides fragilis (both ATCC25285 and a clinical isolate); experiment: Activity against Bacteroides fragilis (specificity); settings: both ATCC25285 and a clinical isolate were tested

Structure (SMILES)	MIC [1] [µg/mL]	MIC [2] [µg/mL]	activity against Bacteroides fragilis [3]
Cn1c(-c2ccc(N)cc2)nc2ccc(-c3ccc4[nH]c(-c5ccc(N)cc5)nc4c3)cc21 [Compound 4, 4,4′-(3′-methyl-1H,3′H-5,5′-bibenzo[d]imidazole-2,2′-diyl)dianiline]	17 to 64 (≈ 39.5 to 149 µM)	< 1	
CNc1ccc(-c2nc3cc(-c4ccc5[nH]c(-c6ccc(NC)cc6)nc5c4)ccc3[nH]2)cc1 [Compound 6, 4,4′-(1H,1′H-5,5′-bibenzo[d]imidazole-2,2′-diyl)bis(N-methylaniline)]	< 1	< 1	
Nc1ccc(-c2nc3cc(-c4ccc5nc(-c6ccc(N)cc6)[nH]c5c4)ccc3[nH]2)cc1 [Compound 1, 4,4′-(1H,3′H-5,5′-bibenzo[d]imidazole-2,2′-diyl)dianiline]	< 1	< 1	
Nc1ccc(-c2nc3cc(-c4ccc5[nH]cnc5c4)ccc3[nH]2)cc1 [Compound 8, 4-(1H,1′H-5,5′-bibenzo[d]imidazol-2-yl)aniline]	1 to 16 (≈ 3.07 to 49.2 µM)	1 to 16 (≈ 3.07 to 49.2 µM)	
COc1ccc(-c2nc3cc(-c4ccc5[nH]c(-c6ccc(OC)cc6)nc5c4)ccc3[nH]2)cc1 [Compound 7, 2,2′-bis(4-methoxyphenyl)-1H,1′H-5,5′-bibenzo[d]imidazole]	< 1	< 1	
Nc1cccc(-c2nc3cc(-c4ccc5[nH]c(-c6cccc(N)c6)nc5c4)ccc3[nH]2)c1 [Compound 2, 3,3′-(1H,1′H-5,5′-bibenzo[d]imidazole-2,2′-diyl)dianiline]	< 1	1 to 16 (≈ 2.4 to 38.4 µM)	
Nc1ccc(-c2nc3cc(-c4ccc5[nH]c(-c6ccccc6)nc5c4)ccc3[nH]2)cc1 [Compound 9, 4-(2′-phenyl-1H,1′H-5,5′-bibenzo[d]imidazol-2-yl)aniline]	< 1	< 1	
c1cc(-c2nc3cc(-c4ccc5[nH]c(-c6ccncc6)nc5c4)ccc3[nH]2)ccn1 [Compound 12, 2,2′-di(pyridin-4-yl)-1H,1′H-5,5′-bibenzo[d]imidazole]	< 1	> 64	no significant antibacterial activity
Nc1ccc(-c2nc3cc(-c4ccc5[nH]c(-c6ccc(N)nc6)nc5c4)ccc3[nH]2)cn1 [Compound 11, 5,5′-(1H,1′H-5,5′-bibenzo[d]imidazole-2,2′-diyl)dipyridin-2-amine]	< 1	17 to 64 (≈ 40.6 to 153 µM)	
Oc1ccc(-c2nc3cc(-c4ccc5[nH]c(-c6ccc(O)cc6)nc5c4)ccc3[nH]2)cc1 [Compound 3, 4,4′-(1H,1′H-5,5′-bibenzo[d]imidazole-2,2′-diyl)diphenol]	< 1	< 1	
Cn1c(-c2ccc(N)cc2)nc2cc(-c3ccc4[nH]c(-c5ccc(N)cc5)nc4c3)ccc21 [Compound 5, 4,4′-(1-methyl-1H,1′H-5,5′-bibenzo[d]imidazole-2,2′-diyl)dianiline]	< 1	< 1	
COc1ccc(-c2nc3ccc(-c4ccc5[nH]c(-c6ccccc6)nc5c4)cc3[nH]2)cc1 [Compound 10, 2′-(4-methoxyphenyl)-2-phenyl-1H,3′H-5,5′-bibenzo[d]imidazole]	< 1	< 1	

Values after ≈ are worked out from the molar mass of the structure shown.
